# Experimental data reported in the BET-seq Pho4 binding data (Le et al. 2018).
# The list shows a part of the results. Values were computed here from the reads of four pooled replicates and scatter widely.
# Target: T1, Pho4 (S. cerevisiae) (UniProt P07270)
# T1 sequence: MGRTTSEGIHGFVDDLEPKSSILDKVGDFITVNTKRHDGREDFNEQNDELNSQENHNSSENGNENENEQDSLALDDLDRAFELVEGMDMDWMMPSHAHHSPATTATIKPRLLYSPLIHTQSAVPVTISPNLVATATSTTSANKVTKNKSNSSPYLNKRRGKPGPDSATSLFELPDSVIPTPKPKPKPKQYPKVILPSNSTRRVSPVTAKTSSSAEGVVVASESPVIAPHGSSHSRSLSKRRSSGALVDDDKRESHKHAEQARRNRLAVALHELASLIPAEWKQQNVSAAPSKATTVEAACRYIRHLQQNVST
# Assay: relative binding free energy (BET-seq); higher = weaker binding
# Settings: reference: library average
row,Sequence,relative binding free energy [kcal/mol]
1,CGTATCACGTGTGTAA,0.14
2,CTGTGCACGTGGGGAT,-0.21
3,GAATGCACGTGATTGA,0.27
4,GTACTCACGTGCTTGG,0.31
5,AAGCCCACGTGGGGGG,-0.28
6,TGGTGCACGTGTCTAT,-0.01
7,GTTATCACGTGTTTGT,0.2
8,GCGCGCACGTGTGTGG,-0.11
9,CATCGCACGTGTGGTT,0.07
10,GTAAACACGTGTTGGC,-0.02
11,GTGATCACGTGAATGA,0.34
12,TTAGTCACGTGGATAT,0.06
13,TGGGTCACGTGGACAT,0.15
14,GGGAACACGTGTGCTT,0.24
15,TGAAGCACGTGGACGT,0.01
16,TGGCTCACGTGGTCTG,0.02
17,GTTCGCACGTGAATGT,0.24
18,TTGATCACGTGATAAG,0.36
19,AGCTTCACGTGATGTT,0.21
20,TAGTACACGTGTTTCG,0.14
21,TTAGGCACGTGAGGGT,0.14
22,CGATTCACGTGGGGGC,0.42
23,AGATTCACGTGGCGGA,0.26

row,Sequence,relative binding free energy [kcal/mol]
1,GGGGGCACGTGTTCAT,-0.14
2,GGAGGCACGTGGCTTG,-0.17
3,CGGTTCACGTGAGTGC,0.24
4,GTAGACACGTGTGTTT,0
5,TGATTCACGTGTTGTG,0.28
6,TGTGGCACGTGTTTGA,-0.04
7,CTTATCACGTGAGTTT,0.25
8,GTTGACACGTGGGAGG,0.05
9,GTAAACACGTGTAGGG,0.03
10,TGTGTCACGTGCTTTT,-0.01
11,CTGATCACGTGTGTGT,0.1
12,GATGGCACGTGTGGCT,0.09
13,TTAATCACGTGATGTG,0.07
14,CTAGGCACGTGGAGCG,-0.12
15,CTGTACACGTGATGGG,0.19
16,GTTTGCACGTGGCAGA,0.1
17,CATGGCACGTGGCGGT,-0.16
18,TGAGACACGTGGTGCG,-0.11
19,AGTATCACGTGTGGCT,0.11
20,GTGAACACGTGTTCGG,0.02
21,ATTAACACGTGGTTTT,0.01
22,TGGCTCACGTGTTTGC,0.26
23,GTGAGCACGTGTAGTC,0.01

row,Sequence,relative binding free energy [kcal/mol]
1,TAGAGCACGTGTTTAT,-0.15
2,AGTTGCACGTGGACTG,0.07
3,AATGGCACGTGTGTGA,0.05
4,CGTGTCACGTGTCAGG,0.01
5,CGGGTCACGTGAATTT,0.33
6,AGTTCCACGTGGTAGG,-0.06
7,TACTACACGTGGTGTT,-0.08
8,AAGGTCACGTGTAGTA,0.06
9,GGGTACACGTGTGCGT,0.14
10,GGATGCACGTGTGTAG,-0.05
11,AGTAACACGTGTCGGG,-0.01
12,TAGGGCACGTGGTAGA,-0.11
13,AAGTACACGTGTTGTA,-0.06
14,CTGGGCACGTGTTTAG,-0.13
15,AACGGCACGTGTTAAG,0.14
16,AAATCCACGTGTTTTT,0.16
17,AGGCGCACGTGTGTAT,-0.01
18,ATGTTCACGTGCCGGT,0.13
19,TGCAACACGTGCTGGT,-0.02
20,TTACGCACGTGTTTTG,0
21,GGGGACACGTGTAACG,0.25
22,TTAGACACGTGTGGCT,-0.05
23,TGACTCACGTGTGCGG,0.32

row,Sequence,relative binding free energy [kcal/mol]
1,AGGGGCACGTGGGGCA,-0.26
2,TTTATCACGTGTGAGA,0.21
3,GTGCACACGTGGAAGG,0.08
4,GATGGCACGTGGTAAA,-0.07
5,ATGCTCACGTGTTTTA,0.12
6,CATGGCACGTGTTATA,0.03
7,CTTTTCACGTGAGGTG,0.41
8,CTATGCACGTGCTGGG,-0.08
9,AGCTACACGTGAGGGA,0.28
10,AGGTACACGTGTGTCT,0.03
11,ATGGACACGTGGGATG,-0.17
12,TAAGTCACGTGGGGAT,-0.04
13,GGGAGCACGTGGATTT,0.05
14,TATATCACGTGAGAAT,0.48
15,ATTCTCACGTGGCTGT,0.28
16,AATGTCACGTGGTAAT,0.16
17,TATATCACGTGGTGGG,0.12
18,TTCTGCACGTGAGGGG,0.15
19,ATGTTCACGTGATCTT,0.11
20,GAGGGCACGTGTAGGG,-0.01
21,TTAATCACGTGGTCTG,0.03
22,AGAGGCACGTGAGGAG,0.15
23,TAGTTCACGTGTTGAA,0.26

row,Sequence,relative binding free energy [kcal/mol]
1,CGTAGCACGTGTATTA,-0.05
2,GGGTACACGTGGAAGT,0.26
3,TGATTCACGTGCGGCT,0.25
4,TGGAACACGTGCGTTG,0.12
5,GGATACACGTGGGGCG,0.01
6,AGTAGCACGTGCTGTA,-0.09
7,AAGTTCACGTGGGCGT,0.19
8,GCGTGCACGTGAATGT,0.21
9,GGTCGCACGTGGAAGG,0.01
10,AGGTTCACGTGGTTTG,0.35
11,CGGTTCACGTGAGAGT,0.35
12,AGGGTCACGTGCAGCG,0.14
13,GGTGTCACGTGAATGT,0.29
14,CGAAACACGTGGGCGG,-0.08
15,TTCTACACGTGTTTCG,0.21
16,TACATCACGTGTTGTA,0.11
17,GTGCGCACGTGAAAGT,0.26
18,TGCGTCACGTGGTAAT,-0.11
19,GTTATCACGTGCTTGA,0.11
20,CGGGTCACGTGGAGCG,0.09
21,GTCGTCACGTGGGATT,0.06
22,TAATGCACGTGAGGGA,0.3
23,TCTAACACGTGGTTTT,-0.01
